Results reported in the supplement of paper PMC8728848.
Some of the results follow.

How the values were obtained:
Experiment in all cases: glycan array binding signal (z-score within array); higher = stronger binding
Conditions in all cases: glycan notation: IUPAC condensed, linker removed
[1] = biological target: Neu5Ac(a2-8)Neu5Ac(a2-3)[GalNAc(b1-4)]Gal(b1-4)Glc
Outline: (§1)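 Glycan array binding is given as a within-array Z-score, which can be read as non-binding when negative. The arrays, 3228 of them, came from the Consortium for Functional Glycomics database and were retained only where the protein sequence was available. Z-scores were averaged across arrays of the same protein sequence at different concentrations or buffers and across linkers.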

[2] = biological target: Neu5Ac(a2-8)Neu5Ac(a2-8)Neu5Ac
Outline: as §1

[3] = biological target: Neu5Ac(a2-8)Neu5Ac(a2-8)Neu5Ac(a2-3)Gal(b1-4)Glc
Outline: as §1

[4] = biological target: Neu5Ac(a2-8)Neu5Ac(a2-8)Neu5Ac(a2-3)[GalNAc(b1-4)]Gal(b1-4)Glc
Outline: as §1

[5] = biological target: Neu5Ac(a2-8)Neu5Ac(a2-8)Neu5Ac(a2-8)Neu5Ac(a2-3)[GalNAc(b1-4)]Gal(b1-4)Glc
Outline: as §1

Neu5Ac(b1-6)GalNAc = biological target: Neu5Ac(b1-6)GalNAc
Outline: as §1

[6] = biological target: Neu5Ac(b2-6)Gal(b1-4)GlcNAc
Outline: as §1

[7] = biological target: Neu5Ac9Ac(a2-6)Gal(b1-4)GlcNAc
Outline: as §1

[8] = biological target: Neu5Gc(a2-3)Gal(b1-3)GlcNAc
Outline: as §1

[9] = biological target: Neu5Gc(a2-3)Gal(b1-3)[Fuc(a1-4)]GlcNAc
Outline: as §1

Neu5Gc(a2-3)Gal(b1-4)Glc = biological target: Neu5Gc(a2-3)Gal(b1-4)Glc
Outline: as §1

[10] = biological target: Neu5Gc(a2-3)Gal(b1-4)GlcNAc
Outline: as §1

[11] = biological target: Neu5Gc(a2-3)Gal(b1-4)[Fuc(a1-3)]GlcNAc
Outline: as §1

[12] = biological target: Neu5Gc(a2-6)Gal(b1-4)GlcNAc
Outline: as §1

Neu5Gc(a2-6)GalNAc = biological target: Neu5Gc(a2-6)GalNAc
Outline: as §1

B1: F4 (Escherichia coli), A0A6L9DDF0 (protein)
chain: MKKTLIALALAASAVSGMAHAWTSGDFNGTVDIGGSIDATNYRQKWEWEVGTGLNGFYNALSELTNNDTKLTITVTGNKPILLGRTKEAFVTPTAGGWGGIPQIAFTDYKGAPVELKNPDGETNKGLAYFVLPMKNADGTEAGSVRVNASYAGAVVEKTSDSSAKLFSAYAGEVIRIFNGGLPVNVTQSELQSGVAAADRTALFGSLGKADLVAQFQAVIPGATVTDGTSSEHCTMRLLASAAYALGIADGQTIEATFNQAVTTSTQWSAPLNVAITYY
glycan array binding signal (z-score) [1]: -0.168 | glycan array binding signal (z-score) [2]: -0.302 | glycan array binding signal (z-score) [3]: -0.153 | glycan array binding signal (z-score) [4]: -0.333 | glycan array binding signal (z-score) [5]: -0.188 | glycan array binding signal (z-score) (Neu5Ac(b1-6)GalNAc): -0.336 | glycan array binding signal (z-score) [6]: -0.415 | glycan array binding signal (z-score) [7]: -0.136 | glycan array binding signal (z-score) [8]: -0.306 | glycan array binding signal (z-score) [9]: -0.262 | glycan array binding signal (z-score) (Neu5Gc(a2-3)Gal(b1-4)Glc): -0.398 | glycan array binding signal (z-score) [10]: -0.306 | glycan array binding signal (z-score) [11]: -0.349 | glycan array binding signal (z-score) [12]: -0.343 | glycan array binding signal (z-score) (Neu5Gc(a2-6)GalNAc): -0.187
